# PubChem BioAssay AID1345082 (National Center for Advancing Translational Sciences (NCATS), 2018)
# In all, about 94,000 compounds went through this assay and about 4,000 (4.3%) were called active. The inconclusive results got no clear call from the source; some entries with a clear call stand among them for comparison. The call rests on the fitted dose curve; in most records, active means well fitted inhibition curve with a large enough effect; inconclusive means small, poorly fitted or top-dose-only effect; inactive means no such curve, though single readings can be large or run the other way. Where the call is inconclusive, the potency comes from a doubtful curve fit.
# Assay: Cytotoxic Profiling in NIH 3T3 Cell Line of Diverse Libraries Using Quantitative High-Throughput Screening; further: nearly all actives have a fitted effect of over 55% in size
# Conditions: NIH 3T3 viability, CellTiter-Glo ATP luminescence, 48-72 h; series mostly up to 96.7 µM
# Summary of the method: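 Cytotoxicity was measured by CellTiter-Glo ATP luminescence after 48 or 72 h compound exposure at 37 °C. Mouse NIH 3T3 fibroblasts were seeded at 400 cells/well and dosed by 23 nL pin transfer.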
# Potency means the concentration at half of the fitted maximal effect; tags describe the fitted curve by direction and shape.
row,Structure (SMILES),Potency
1,O=C(N[C@@H]1CN(Cc2cccc(OC(F)(F)F)c2)CC[C@@H]1CO)c1ccccc1,"inconclusive: 44.7 µM [inhibitor, partial curve, poor fit]"
2,O=C(NC[C@H]1COCc2nc3cc(F)ccc3n21)c1ccc2c(c1)OCO2,"inconclusive: 56.2 µM [inhibitor, partial curve, poor fit]"
3,CC(=O)Nc1cccc(-c2cn(C)c(=O)n3cc(COc4ccc(Cl)cc4)nc23)c1,"inconclusive: 89.1 µM [inhibitor, partial curve, poor fit]"
4,COc1ccccc1CNC(=O)C1CCN(c2nccc(Nc3ccccc3F)n2)CC1,"inconclusive: 25.1 µM [inhibitor, full curve]"
5,CCNC(=O)NC[C@@H]1C=C(C)[C@H](Cc2nnc(-c3cncn3C)o2)C[C@H]1C(C)C,"inconclusive: 79.4 µM [inhibitor, partial curve]"
6,Cc1cc(C)c(C#N)c(-c2ccc(C(C)N3CCOCC3)cc2)n1 (stereo unspecified),"inconclusive: 39.8 µM [inhibitor, full curve, poor fit]"
7,CN1CCN(c2cc(=O)c3ccnc(-c4ccccc4Oc4ccccc4)c3o2)CC1,"inconclusive: 8.91 µM [inhibitor, full curve, poor fit]"
8,O=C(CCc1ccccc1)N1CCN(c2cc(-c3cccs3)[nH]n2)CC1,"inconclusive: 39.8 µM [inhibitor, partial curve]"
9,O=C(c1cc2c(s1)CCC(C(=O)N1CCN(c3ccccc3)CC1)C2)N1CCOCC1 (stereo unspecified),"inconclusive: 50.1 µM [inhibitor, partial curve, poor fit]"
10,COc1ccccc1-c1ccc(C(=O)N2CCC(N[S+](=O)([O-])c3c(C)noc3C)CC2)cc1,"inconclusive: 50.1 µM [inhibitor, partial curve, poor fit]"
11,CC(C)CN1CCN(C(=O)c2ccc(CCC(C)(C)O)cc2)C(C)C1=O (stereo unspecified),"inconclusive: 44.7 µM [inhibitor, partial curve, poor fit]"
12,C[C@@H](c1ccccc1)N1C(=O)[C@@H]2CN(C(=O)c3ccco3)CCN2C1=O,inactive
13,CSCC[C@@H]1NC(=O)c2cc(NC(=O)CCc3ccc4c(c3)CCO4)ccc2NC1=O,"inconclusive: 44.7 µM [inhibitor, partial curve, poor fit]"
14,CCNC(=O)N1CCC(Cc2ccc(C(=O)N3CCN(c4ccccc4)CC3)cc2)CC1,"inconclusive: 44.7 µM [inhibitor, partial curve, poor fit]"
15,CCOc1ccc(C(=O)N2CCCN(c3cc(-c4ccc(Cl)cc4)[nH]n3)CC2)cc1OCC,"inconclusive: 39.8 µM [inhibitor, partial curve, poor fit]"
16,CCC(=O)N1CCC(CC)(N2CCN(S(=O)(=O)c3cccc(C(F)(F)F)c3)CC2)C1 (stereo unspecified),"inconclusive: 44.7 µM [inhibitor, partial curve, poor fit]"
17,CCN(CC1CCOCC1)C(=O)c1cc(COc2ccccc2F)[nH]n1,inactive
18,CCN1c2cc(C(=O)Nc3ccc(C(C)C)cc3)ccc2C(=O)N2CCCCC21 (stereo unspecified),"inconclusive: 11.2 µM [inhibitor, full curve, poor fit]"
19,CC(CCc1ccccc1)NC(=O)CN1C(=O)NC(c2ccc(Cl)cc2)C2=C1COC2=O (stereo unspecified),"inconclusive: 39.8 µM [inhibitor, partial curve, poor fit]"
20,COc1ccc([C@@H]2CN(Cc3ccc(C#N)cc3)C[C@H]2N(C)C)cc1,inactive
21,COc1cccc(-c2cc(-c3nc(C4CC(=O)N(C5CCCCC5)C4)no3)[nH]n2)c1 (stereo unspecified),"inconclusive: 3.98 µM [inhibitor, full curve, poor fit]"

row,Structure (SMILES),Potency
1,CCOC(=O)[C@@H]1CN(S(=O)(=O)c2cccs2)[C@H]2c3ccccc3O[C@@H]12,"inconclusive: 44.7 µM [inhibitor, partial curve, poor fit]"
2,O=C(c1ccccc1)N1Cc2[nH]cnc2C[C@H]1c1nc(-c2ccncc2)no1,inactive
3,Fc1ccc(-c2cc(CC3(NCc4ccco4)COC3)no2)cc1,"inconclusive: 112 µM [inhibitor, partial curve, poor fit]"
4,CN1C[C@@H](F)[C@@H](OCc2nc3ccc(C(F)(F)F)cc3[nH]2)C1,"inconclusive: 89.1 µM [inhibitor, partial curve]"
5,COCC(=O)N1CCc2nc(C)nc(-c3ccc(OC)cc3)c2C1,inactive
6,CCC1Oc2ccc(NC(=O)c3ccc(F)cc3F)cc2CN(Cc2ccc3c(c2)OCO3)C1=O (stereo unspecified),inactive
7,COCCn1c(C)cnc1CCNC(=O)COc1ccccc1,inactive
8,CCN1CC(C(=O)N2CCCC(c3ccccc3)(c3ccccc3)C2)CC1=O (stereo unspecified),inactive
9,COCc1ccc2c(c1)c(OC(C)(C)C(=O)N1CC(O)C1)nn2CCC(C)C,"inconclusive: 89.1 µM [inhibitor, partial curve]"
10,COc1ccc(F)cc1-c1ccc(CN2CCCCC2C(=O)NCc2cccc(F)c2)cc1 (stereo unspecified),active: 35.5 µM
11,Cc1nc2cccnc2n1CC1CCCN(S(=O)(=O)c2cccc(Cl)c2)C1 (stereo unspecified),"inconclusive: 44.7 µM [inhibitor, partial curve, poor fit]"
12,CCc1ccc(NC(=O)c2ccc(Cn3ccn4nc5c(c4c3=O)CCCC5)cc2)cc1,"inconclusive: 44.7 µM [inhibitor, partial curve, poor fit]"
13,COc1ccccc1CNC(=O)c1cc2c(s1)CCN(C(=O)c1ccccc1)C2,"inconclusive: 25.1 µM [inhibitor, partial curve]"
14,COc1ccc(CN[C@@H]2C=C[C@@H](c3c(C)nn(-c4cccc(Br)c4)c3C)C2)cc1,"inconclusive: 22.4 µM [inhibitor, full curve, poor fit]"
15,Cn1cccc1C(=O)N1CCCC(C(=O)NCc2ccccc2)CCNC(=O)CC1 (stereo unspecified),inactive
16,CN(c1ccccc1)c1cc(=O)c2ccnc(-c3ccnn3C)c2o1,active: 35.5 µM
17,COc1ccc(Cl)cc1C(=O)NC1CCN(c2cc(C(F)(F)F)nc(C)n2)CC1,"inconclusive: 12.6 µM [inhibitor, full curve]"
18,CCOc1ccc(C2Cn3nnc(-c4nc(-c5cccc(OCC)c5)no4)c3CO2)cc1 (stereo unspecified),inactive
19,COCC1CN(S(=O)(=O)c2cccc(C#N)c2)CC12CCNCC2 (stereo unspecified),inactive
20,COc1cccc(-c2ccc(CN3CCCC3C(=O)NCc3ccc(C(F)(F)F)cc3)cc2)c1 (stereo unspecified),"inconclusive: 20 µM [inhibitor, full curve, poor fit]"
21,CCc1nc2c(c(-c3ccc(O)cc3)n1)CN(C(=O)c1ccc(OC)cc1)CC2,inactive

row,Structure (SMILES),Potency
1,COc1ccc(NC(=O)[C@@H]2C[C@@H](c3cccc(C(F)(F)F)c3)N(C)C2)cc1OC,"inconclusive: 112 µM [inhibitor, single point]"
2,O=C(NCC1CC1)c1ccc2nccn2c1,inactive
3,CC(C)CCNC(=O)N1CCCC(c2noc(COc3ccccc3F)n2)C1 (stereo unspecified),"inconclusive: 44.7 µM [inhibitor, partial curve, poor fit]"
4,COCCN1C(=O)[C@@H]2C[C@@H](CN2Cc2ccc(C#N)cc2)Oc2ccccc21,"inconclusive: 79.4 µM [inhibitor, partial curve]"
5,O=C(O)COc1ccc(-c2nccc3c2C(=O)N(Cc2c[nH]c4ccccc24)CC(COc2ccccc2F)O3)cc1 (stereo unspecified),"inconclusive: 70.8 µM [inhibitor, single point]"
6,CCCCOc1ccc(C(=O)N2CCC[C@H]2c2nc(-c3ccccc3Cl)no2)cc1,"inconclusive: 50.1 µM [inhibitor, partial curve, poor fit]"
7,O=C(NCc1ccc(F)cc1)c1ccc2nnc(-c3ccc(OC(F)(F)F)cc3)n2c1,"inconclusive: 35.5 µM [inhibitor, full curve, poor fit]"
8,CCc1nc(-c2c3n(c(=O)n(CC(=O)NCc4ccc(C)cc4)c2=O)CCCC3)no1,inactive
9,COc1ccc(CCNc2ncnc3c2CN(c2ccccc2F)C(=O)CN3C)cc1,"inconclusive: 44.7 µM [inhibitor, partial curve, poor fit]"
10,CCc1nc2c(c(-c3ccc(Cl)cc3)n1)CCN([S+](=O)([O-])c1c(C)noc1C)CC2,"inconclusive: 35.5 µM [inhibitor, partial curve, poor fit]"
11,O=C(c1cc(F)ccc1F)N1CCCC(Cc2nncn2CC2CC2)C1 (stereo unspecified),inactive
12,COCCN1CCCCCC(O)c2cc(C(=O)N3CCCCCC3)ccc21 (stereo unspecified),"inconclusive: 12.6 µM [inhibitor, full curve, poor fit]"
13,CN1CC2(CCN(CC3CC3)CC2)CC1C(=O)N1CCOCC1 (stereo unspecified),inactive
14,CC(C)NC(=O)N1CCOC[C@H]1c1ncc(-c2ccc(OC(F)(F)F)cc2)[nH]1,"inconclusive: 79.4 µM [inhibitor, partial curve, poor fit]"
15,COc1ccc(-c2nc(-c3ccccc3)nc3c2CN(C(=O)c2ccc(C)cc2)CC3)cc1,"inconclusive: 39.8 µM [inhibitor, partial curve, poor fit]"
16,O=C(Nc1ccc(F)cc1)c1ccc2oc(-c3ccnc(Cl)c3)nc2c1,"inconclusive: 56.2 µM [inhibitor, partial curve, poor fit]"
17,CCN(C(=O)CN1C(=O)NC2(CCC(C(C)(C)C)CC2)C1=O)c1cccc(C)c1 (stereo unspecified),"inconclusive: 56.2 µM [inhibitor, partial curve, poor fit]"
18,COc1ccc(CN2CC(c3nc(Cc4cccnc4)no3)C2)c(OC)c1,active: 15.8 µM
19,COCCNC(=O)C[C@@H]1c2nc(NC(=O)c3cccc(F)c3)sc2C[C@@H]2[C@](C)(CO)[C@H](O)CC[C@]21C,"inconclusive: 50.1 µM [inhibitor, single point]"
